Source: the supplement of paper PMC9433436
± gives the standard deviation of the averaged measurements. Whole data set: some 4,100 sequences, median “relative kcat/Km (krel) vs genomic leader AAAGAU” near 1.7, cut for the highest 2% near 6.5. Only a part is listed here, and it is no random draw.

Target: T1, E. coli RNase P holoenzyme (M1 P RNA + rnpA protein) (UniProt P0A7Y8)
T1 sequence: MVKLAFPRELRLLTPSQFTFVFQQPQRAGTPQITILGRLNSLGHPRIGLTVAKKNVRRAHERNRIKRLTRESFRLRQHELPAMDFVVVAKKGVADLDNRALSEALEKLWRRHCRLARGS
Assay: relative kcat/Km (krel) vs genomic leader AAAGAU (relative (reference leader = 1)); higher = faster RNase P cleavage
Description: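 HTS-Kin: a pool of ptRNA-Met (21C construct) with all 4096 combinations of 5' leader nucleotides N(-6) to N(-1) was processed in vitro by E. coli RNase P (P RNA + rnpA/C5 protein) under multiple-turnover conditions at 37 C, pH 8, 17.5 mM MgCl2. Residual substrate was Illumina-sequenced at several fractions reacted, and relative kcat/Km (krel) was computed by internal competition kinetics, calibrated to the genomic leader (AAAGAU = 1). The listed hexamer is the varied N(-6)..N(-1) leader (DNA letters), and it sits between a fixed 5' stem-loop flank (GCAUGCACGAAAGUGCGUGCUAUGAA) and the mature tRNA-Met starting GGCUACGUAGCUCAGUUGG. Two technical replicates are averaged.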

[1] = fraction of substrate reacted: ~9-10% (9.79% repeat 1, 9.1% repeat 2)
[2] = fraction of substrate reacted: ~13-16% (15.68% repeat 1, 13.17% repeat 2)
[3] = fraction of substrate reacted: ~26-29% (28.66% repeat 1, 26.4% repeat 2)

| Sequence | relative kcat/Km [1] | relative kcat/Km [2] | relative kcat/Km [3] |
| --- | --- | --- | --- |
| GAAATT | 1.45 ± 0.96 | 1.17 ± 0.27 | 1.89 ± 0.47 |
| ACAGGG | 0.201 ± 0.11 |  | 1.03 ± 1 |
| AATTCC | 2.91 ± 1.4 | 2.15 ± 0.66 | 2.44 ± 0.66 |
| CCTATG |  | 0.685 ± 0.47 | 2.25 ± 0.41 |
| CGAACT | 1.21 ± 0.45 | 0.253 ± 0.058 | 1.36 ± 0.21 |
| CACGGA |  |  | 0.766 ± 0.63 |
| CGGAAA | 1.04 ± 0.18 | 1.09 ± 0.26 | 1.18 ± 0.27 |
| TTCTAA | 5.69 ± 2.2 |  |  |
| TCTTGA | 2.62 ± 1.2 | 3.33 ± 0.99 | 5.86 ± 2.8 |
| TACCGC | 3.15 ± 1.3 | 4.16 ± 0.76 | 6.03 ± 2.5 |
| CATGCT | 1.57 ± 0.78 | 0.422 ± 0.17 | 0.818 ± 0.32 |
| GAACCA |  | 0.958 ± 0.39 | 1.32 ± 0.75 |
| AAGAAC | 1.88 ± 0.69 | 2.08 ± 0.28 | 2.85 ± 0.47 |
| AGTCGA | 2.68 ± 0.35 | 3.65 ± 1.2 | 5.59 ± 2 |
| GCACAT | 1.01 ± 0.026 | 0.907 ± 0.12 | 2.61 ± 1.2 |
| CCGCCT | 1.45 ± 0.15 |  | 1.54 ± 0.38 |
| AGAGAA | 1.1225 ± 0.00048 | 2.03 ± 0.15 | 2.87 ± 0.86 |
| AGAACT | 0.853 ± 0.61 | 1.01 ± 0.59 | 1.58 ± 0.13 |
| GATCAT | 2.26 ± 0.96 | 3.62 ± 0.21 | 5.17 ± 1.7 |

| Sequence | relative kcat/Km [1] | relative kcat/Km [2] | relative kcat/Km [3] |
| --- | --- | --- | --- |
| TGGTAA | 0.283 ± 0.25 | 1.03 ± 0.62 | 1.24 ± 0.82 |
| ACTGGA | 0.346 ± 0.015 |  |  |
| ACTAAA | 2.3 ± 1.6 | 2.14 ± 0.14 | 3.03 ± 0.69 |
| TTCTGG | 0.949 ± 0.38 | 0.819 ± 0.094 | 1.66 ± 0.46 |
| AAGCCA | 1.15 ± 0.28 |  | 1.36 ± 0.77 |
| ACTTAA | 3.2 ± 1.5 | 3.22 ± 0.091 | 4.18 ± 1.5 |
| GATTGA | 2.31 ± 0.22 | 3.98 ± 1.1 | 4.96 ± 2.3 |
| TCAACC | 1.83 ± 0.38 | 1.66 ± 0.79 | 1.97 ± 0.24 |
| TGGTTA |  |  | 1.05 ± 0.53 |
| AGGGCC |  |  | 0.635 ± 0.26 |
| TTCGAT | 1.69 ± 0.22 | 2.71 ± 1.2 | 4.44 ± 2 |
| AATGCG |  |  | 0.487 ± 0.2 |
| TGAGAG | 0.464 ± 0.056 | 0.726 ± 0.6 | 1.32 ± 0.24 |
| TTTAGT |  |  | 2.46 ± 2.2 |
| ACCCAG |  | 1.4 ± 0.71 | 2.64 ± 0.17 |
| TGTCGG | 0.171 ± 0.1 | 0.567 ± 0.23 | 1.14 ± 0.26 |
| AGAACG |  | 0.074 ± 0.047 | 0.826 ± 0.79 |
| CTCCGG | 1.38 ± 0.85 | 0.916 ± 0.46 | 1.27 ± 0.5 |
| TAGGCT |  |  | 1.67 ± 1.1 |

| Sequence | relative kcat/Km [1] | relative kcat/Km [2] | relative kcat/Km [3] |
| --- | --- | --- | --- |
| CCTTCC | 1.62 ± 0.022 | 1.51 ± 1.3 | 2.47 ± 0.27 |
| ACCCCG | 1.18 ± 0.35 |  | 2 ± 0.69 |
| CGCGCA | 1.86 ± 0.068 | 2.64 ± 0.045 | 3.31 ± 0.91 |
| ATCATT | 3.39 ± 1.4 | 4.551 ± 0.032 | 6.49 ± 2.6 |
| ACTCGC | 3.16 ± 0.92 | 3.16 ± 0.18 | 3.61 ± 0.64 |
| TGTGCA |  | 0.836 ± 0.2 | 1.71 ± 0.67 |
| ATATCA | 1.94 ± 0.96 | 2.19 ± 0.46 | 2.74 ± 1.5 |
| CTTAGG |  |  | 0.758 ± 0.54 |
| GGGCAC | 1.49 ± 0.77 | 0.688 ± 0.52 | 1.72 ± 0.64 |
| TAGCCC | 1.1 ± 0.067 | 1.11 ± 0.71 | 2.1 ± 0.28 |
| TTAATG |  |  | 1.64 ± 0.45 |
| CAGGTC |  |  | 1.49 ± 1.1 |
| TCACAA |  | 2.19 ± 0.42 | 3.27 ± 0.98 |
| GAAGCC | 1.03 ± 0.013 | 0.755 ± 0.27 | 1.16 ± 0.23 |
| CTTCGG |  |  | 0.551 ± 0.24 |
| TGCAGG |  |  | 0.513 ± 0.1 |
| AGGCGG |  |  | 0.331 ± 0.095 |
| CACCAC | 3.5 ± 0.91 | 3.81 ± 1.5 | 5.55 ± 2.2 |
| GGAATG |  | 0.662 ± 0.44 | 1.94 ± 0.37 |
